# Measurements as given in PubChem BioAssay AID720542 (National Center for Advancing Translational Sciences (NCATS), 2013).
# Hit rate of the full screen: of about 360,000 compounds, about 740 (0.21%) were called active. The inconclusive results got no clear call from the source; some entries with a clear call stand among them for comparison. Calls follow the shape of the dose curve; as a rule, active = well fitted inhibition curve with a large enough effect; inconclusive = small, poorly fitted or top-dose-only effect; inactive = no such curve, though single readings can be large or run the other way. No potency is given beside an inconclusive call; the fits are too rough.
# System: Plasmodium falciparum AMA1 (3D7) - RON2 peptide interaction
# Assay: qHTS for Inhibitors of AMA1-RON; Towards Development of Antimalarial Drug Lead: Primary Screen; also: nearly all actives have a fitted effect of over 45% in size;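 as to activity change, negative = inhibition: 0% = vehicle wells and -100% = peptide control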
# Conditions: AlphaScreen AMA1-biotinylated RON2 peptide binding; activity change, negative = inhibition: at 58.2 µM (top of the series) unless noted
# How it was run: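 AMA1 (3D7) with his tag at 25 nM final met compounds first, then biotinylated RON2 peptide at 25 nM; detection used donor plus acceptor beads, 10 µg/mL apiece, read by AlphaScreen after 30 min at room temperature.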
# Potency is read from the fitted curve at half-maximal effect; tags tell the direction and shape of the fitted curve.
SMILES,Potency,"activity change, negative = inhibition"
O=C(COC(=O)CNC(=O)c1ccc(F)cc1)NC1CCCc2ccccc21 (stereo not given),"inconclusive [inhibitor, full curve, poor fit]",–
CC(=O)Nc1cc(-c2cccc(CO)c2)cn2c(-c3ccc(C(C)=O)cc3)cnc12,–,inactive: 8.83%
C=CCN(CC=C)C(=O)Nc1ccc2nc(C)sc2c1,"inconclusive [inhibitor, single point]",–
NC(=O)c1ccccc1N/C=C/C(=O)c1ccco1,–,inactive: 4.22%
O=C(CCSCc1ccccc1Cl)NCc1cccs1,"inconclusive [inhibitor, partial curve]",–
COc1cccc(NC(=O)CNC(=O)c2ccccc2)c1,–,inactive: -4.6%
Cc1ccc(NC(=O)COC(=O)CCc2c(C)nc3nc(N)nn3c2C)cc1C,–,inactive: 5.74%
CN(C)CCO/N=C(\c1ccc(Br)cc1)c1cccnc1,"inconclusive [inhibitor, partial curve]",–
CCOP(=O)(OCC)/C(=C/N1CCCCC1)NC(=O)c1ccccc1,–,inactive: 11.9%
CCOc1ccc(CN2CCN(C(=O)c3ccco3)CC2)cc1,"inconclusive [inhibitor, single point]",–
O=[N+]([O-])c1ccc(O)c(C=Nc2ccc3c(c2)OCCO3)c1,–,inactive: 7.12%
CNCCCCOc1ccccc1-c1ccccc1,"inconclusive [inhibitor, partial curve]",–
COc1ccc(CN2CCC3CC2c2cc(-c4cccc(C)c4)ccc23)cc1 (stereo not given),"inconclusive [inhibitor, partial curve]",–
CCc1nc2ccc(C(=O)NCCCN3CCCC3=O)cn2c1N(C)Cc1ccc(OC)cc1,–,inactive: 11.1%
Cc1ccccc1N1CCN(Cc2nc(Cc3ccccc3F)no2)CC1,"inconclusive [inhibitor, partial curve]",–
CCOC(=O)c1sc(NC(=O)C(OC(C)=O)c2ccccc2)nc1C (stereo not given),–,inactive: 12.6%
CN(Cc1ccc(F)cc1)C(=O)c1cccc(S(=O)(=O)N2CCN(c3ccc(F)cc3)CC2)c1,"inconclusive [inhibitor, partial curve]",–
N#C/C(=C/c1ccccc1[N+](=O)[O-])c1nc(C2CC2)cs1,"inconclusive [inhibitor, single point]",–
O=C(CSc1nc(-c2ccccc2)c(-c2ccccc2)o1)N1CCCCC1,"inconclusive [inhibitor, single point]",–
COc1cccc(C(=O)Nc2ccc(S(=O)(=O)NCc3ccco3)cc2)c1,"inconclusive [inhibitor, partial curve]",–
O=[N+]([O-])c1cccc(CN2CCC(Cc3ccccc3)CC2)c1,"inconclusive [inhibitor, partial curve]",–
COc1cccc(-c2sc3ccccc3c2-c2ccc(OCCN3CCCC3)cc2)c1,"inconclusive [inhibitor, partial curve]",–
COc1ccc2c(c1)c(=O)oc1c(C)c(OC(C)C(=O)N[C@@H](Cc3c[nH]c4ccc(O)cc34)C(=O)O)ccc12 (stereo not given in full),"inconclusive [inhibitor, partial curve]",–

SMILES,Potency,"activity change, negative = inhibition"
COc1c(O)cc2oc(-c3ccc(O)c(O)c3)cc(=O)c2c1O,"inconclusive [inhibitor, full curve]",–
COc1cccc(-c2sc3ccc(OC)cc3c2-c2ccc(OCCN(C)C)cc2)c1,active: 14.1 µM,–
CCOC(=O)/C(=N/Nc1ccccc1)N1CCCc2ccccc21,"inconclusive [inhibitor, partial curve]",–
C#CCOCCOCCOCCNc1nc(N2CCN(C(=O)CCCCCCCCCCNC(=O)Cn3cc(CCCCCN)nn3)CC2)nc(N2CCN(C(=O)CCCCCCCCCCNC(=O)[C@H]([C@@H](C)CC)n3cc(CCCCCN)nn3)CC2)n1,"inconclusive [inhibitor, single point]",–
CCCCOc1cccc(C(=O)Nc2ccccc2N2CCCC2)c1,"inconclusive [inhibitor, single point]",–
CN(C)S(=O)(=O)c1cccc(NC(=O)COC(=O)c2cc3ccccc3oc2=O)c1,–,inactive: 11.2%
COc1ccc(-c2cc3c(c4c2ccn4C)C2CCC3C2)cn1 (stereo not given),"inconclusive [inhibitor, partial curve]",–
COc1ccc(N2CCN(c3oc(Cc4cccc5ccccc45)nc3C#N)CC2)cc1,–,inconclusive: -14.6% [inhibitor]
CCCc1nc2ccccc2n1C(=S)SC,"inconclusive [inhibitor, single point]",–
CCN(CC)c1ccc2nc3ccccc3[n+](CC)c2c1,"inconclusive [inhibitor, partial curve]",–
Cc1nc(Nc2ccc(O)cc2)c2c3c(sc2n1)CCCC3,"inconclusive [inhibitor, partial curve]",–
COCc1ccc(CN2CCC(C(=O)Nc3cccc(-c4cscn4)c3)CC2)o1,–,inactive: -10.2%
CC[C@H](C)/C=C(C)/C=C/C1=CC2=C(Cl)C(=O)[C@@](C)(OC(C)=O)C(=O)C2=CO1,"inconclusive [inhibitor, single point]",–
C=CCn1c(Cc2csc(N)n2)nnc1SCC(=O)Nc1ccccc1C(F)(F)F,"inconclusive [inhibitor, partial curve]",–
Cc1ccc(S(=O)(=O)NNC(=O)C(=O)NNc2ccccn2)cc1,active: 31.6 µM,–
O=c1oc(-c2ccc([N+](=O)[O-])cc2)nc2ccccc12,–,inactive: -7.65%
COc1ccc(N2CCN(C(CNS(=O)(=O)c3ccccc3)c3ccccc3)CC2)cc1 (stereo not given),"inconclusive [inhibitor, single point]",–
CC1=CC(=O)C(C(C)C)=C/C1=N/OS(=O)(=O)c1ccccc1,"inconclusive [inhibitor, single point]",–
COC1=C(OC)C(=O)C(Sc2ccc3ccccc3c2)=CC1=O,active: 12.6 µM,–
COc1ccc2c(c1)CC/C(=C\c1ccc(C)o1)C2=O,"inconclusive [inhibitor, partial curve]",–
Nc1ccccc1-c1nc2ccccc2s1,–,inactive: 135%
C=CCN1C(=O)/C(=C\c2ccco2)C(C(=O)OC)=C1C,"inconclusive [inhibitor, partial curve]",–
